# Measured values reported in PubChem BioAssay (Tox21).
# Values joined by “and” are separate entries in the source; they are usually repeats but may differ in a detail not shown here. Equal entries are not always repeated. Inconclusive means that the source gave no clear call. Such entries were picked first, then a sample of the others. For part of these data: Potencies of inconclusive entries are doubtful fits and often do not repeat. The source holds several records for some structures; these can differ, active in one and inactive in another. Active and inactive are the calls of the source. Unless noted, calls follow the shape of the dose curve; as a rule, active = well fitted curve in the direction sought with a large enough effect in the repeat runs; inconclusive = weak or mixed curves; inactive = no such curve, though single readings can be large; an effect the other way counts as inactive or inconclusive.
# How the values were obtained:
# [1] = biological target: Thyrotropin receptor (Homo sapiens) (UniProt P16473); assay: qHTS assay to identify small molecule agonists of the thyroid stimulating hormone receptor (TSHR) signaling pathway (AID 1224843; calls by dose curve; also: nearly all actives have a fitted effect of over 45% in size; also: potency is read from the fitted curve at half-maximal effect; as to activation: % is scaled to controls: 0 for no effect and ±100 for the full control effect); conditions: TSHR-HEK293 cells, cAMP HTRF, agonist mode, 30 min; activation: at 92.4 µM (top of the series) unless noted
# Outline: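 TSHR-HEK293 cells in agonist mode, 30 min room-temperature step, then cAMP measured by competitive HTRF (cAMP-d2 with anti-cAMP cryptate) after 1 h at room temperature. Tested at 15 concentrations in triplicate.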
# [2] = qHTS assay to identify small molecule agonists of the hypoxia (HIF-1) signaling pathway - cell viability counter screen (AID 1224844; calls by dose curve; also: potency is read from the fitted curve at half-maximal effect; nearly all actives have a fitted effect of over 50% in size)
# Outline: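 Luminescent ATP content (CellTiter-Glo, 30 min, room temperature) served as the viability measure in HRE-bla ME-180 cells exposed to compounds for 17 hrs in low-serum medium (0.5% dialyzed FBS).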
# [3] = qHTS assay to identify small molecule agonists of H2AX - cell viability counter screen (AID 1224847; calls by dose curve; also: potency is read from the fitted curve at half-maximal effect; nearly all actives have a fitted effect of over 30% in size)
# Outline: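 Quantitative HTS viability measurement: CHO-K1 wild-type cells in serum (10% FBS) medium, short 3 hr drug exposure at 37C with 0.76% DMSO, CellTiter-Glo luminescent detection.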
# [4] = qHTS RealTime-Glo MT Cell Viability Assay in HEK293 cells - 32 hour (AID 1224868); also: nearly all actives have a fitted effect of over 50% in size; also: potency is read from the fitted curve at half-maximal effect
# Outline: (§1)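 Quantitative high-throughput screen of the Tox21 10K library in HEK293: cells and RealTime-Glo reagents plated together, compound added at 5 h, luminescence monitored through 40 h at 37 C.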
# [5] = A CellTox Green Cytotoxicity Assay to monitor cytotoxicity in HEK293 cells - 0 hour (AID 1224869); also: potency is read from the fitted curve at half-maximal effect; nearly all actives have a fitted effect of over 50% in size
# Outline: (§2)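 Each value comes from one timepoint of a single continuous run in which HEK293 cells with CellTox Green were exposed to compound for up to 40 h at 37 C, dye fluorescence rising with cell death.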
# [6] = A CellTox Green Cytotoxicity Assay to monitor cytotoxicity in HEK293 cells - 40 hour (AID 1224871); also: potency is read from the fitted curve at half-maximal effect; nearly all actives have a fitted effect of over 45% in size
# Outline: as §2
# [7] = qHTS RealTime-Glo MT Cell Viability Assay in HEK293 cells - 16 hour (AID 1224872); also: potency is read from the fitted curve at half-maximal effect; nearly all actives have a fitted effect of over 50% in size
# Outline: as §1
# [8] = qHTS RealTime-Glo MT Cell Viability Assay in HEK293 cells - 40 hour (AID 1224874); conditions: RealTime-Glo luminescence; max response: stronger effect = lower value; also: nearly all actives have a fitted effect of over 50% in size; also: potency is read from the fitted curve at half-maximal effect; as to max response: % is scaled to controls: 0 for no effect and ±100 for the full control effect
# Outline: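 qHTS format; HEK293 cells with NanoLuc/prosubstrate reagent, 37 C/5% CO2 for 5 h pre-dosing; compounds 23 nL in DMSO; luminescence at each time point reflects viable cells.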
# [9] = qHTS RealTime-Glo MT Cell Viability Assay in HepG2 cells - 8 hour (AID 1224873); also: nearly all actives have a fitted effect of over 55% in size; also: potency is read from the fitted curve at half-maximal effect
# Outline: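 HepG2 cells (600/well) mixed with RealTime-Glo MT reagent, settled 5 h at 37 C/5% CO2 before compound addition. Nonlytic NanoLuc luminescence from viable-cell prosubstrate reduction read repeatedly during 40 h treatment at 37 C.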
# [10] = qHTS assay to identify small molecule agonists of H2AX (AID 1224845; active = well fitted activation curve with a large enough effect in the signal ratio in the repeat runs, not every such curve was filed as active; inconclusive = weak or mixed curves; the % refers to the signal ratio; also: potency is read from the fitted curve at half-maximal effect; as to activation (H2AX phosphorylation): % is scaled to controls: 0 for no effect and ±100 for the full control effect); conditions: CHO-K1 phospho-H2AX Ser139 HTRF, 3 h; activation (H2AX phosphorylation): at 154 µM (top of the series)
# Outline: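 Wild-type CHO-K1 cells, plated overnight, exposed 3hr at 37C to 15 concentrations (0.76% DMSO final). Lysed, then HTRF anti-pH2AX (S139) cryptate and anti-H2AX-d2 antibodies, 24 hr room temperature; 665/620 nm emission read.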
# [11] = qHTS assay to identify small molecule antagonists of the estrogen related receptor (ERR) signaling pathway from Tox21 library (AID 1224848)
# Outline: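 ERR reporter cell line (from NTP) seeded 2,000 cells/well, rested 6 h at 37 C/5% CO2, then pin-dosed with compounds in DMSO. After 18 h at 37 C, ONE-Glo added; luminescence read after 30 min at room temperature.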
# [12] = qHTS assay to identify small molecule agonists of the hypoxia (HIF-1) signaling pathway (AID 1224846; active = well fitted activation curve with a large enough effect in the signal ratio in the repeat runs, not every such curve was filed as active; inconclusive = weak or mixed curves; the % refers to the signal ratio; also: potency is read from the fitted curve at half-maximal effect); conditions: HRE-bla ME-180 cells, beta-lactamase ratio, 17 h; activation: at 76.8 µM (top of the series) unless noted
# Outline: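 Measured by blue/green FRET after loading CCF4-AM: beta-lactamase expressed from a hypoxia response element in ME-180 cells. Test agents were delivered in DMSO and left 17 hrs; cells had been plated 5 hrs earlier in low-serum (0.5% dialyzed FBS) medium.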
# [13] = qHTS assay to identify small molecule agonists of the estrogen related receptor (ERR) signaling pathway from Tox21 library (AID 1224849; calls by dose curve; also: % is scaled to controls: 0 for no effect and ±100 for the full control effect; nearly all actives have a fitted effect of over 15% in size); conditions: ERR reporter cell line, ONE-Glo luciferase, 18 h; at 92.4 µM (top of the series)
# Outline: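 We plated ERR reporter cells, waited 6 h, added compounds in DMSO by pin tool and incubated them 18 h at 37 C. ONE-Glo was then added and luminescence read after 30 min.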
# Tags tell the direction and shape of the fitted curve or compound fluorescence and quenching.
# Chain of UniProt P16473 (P16473 whole entry, looked up): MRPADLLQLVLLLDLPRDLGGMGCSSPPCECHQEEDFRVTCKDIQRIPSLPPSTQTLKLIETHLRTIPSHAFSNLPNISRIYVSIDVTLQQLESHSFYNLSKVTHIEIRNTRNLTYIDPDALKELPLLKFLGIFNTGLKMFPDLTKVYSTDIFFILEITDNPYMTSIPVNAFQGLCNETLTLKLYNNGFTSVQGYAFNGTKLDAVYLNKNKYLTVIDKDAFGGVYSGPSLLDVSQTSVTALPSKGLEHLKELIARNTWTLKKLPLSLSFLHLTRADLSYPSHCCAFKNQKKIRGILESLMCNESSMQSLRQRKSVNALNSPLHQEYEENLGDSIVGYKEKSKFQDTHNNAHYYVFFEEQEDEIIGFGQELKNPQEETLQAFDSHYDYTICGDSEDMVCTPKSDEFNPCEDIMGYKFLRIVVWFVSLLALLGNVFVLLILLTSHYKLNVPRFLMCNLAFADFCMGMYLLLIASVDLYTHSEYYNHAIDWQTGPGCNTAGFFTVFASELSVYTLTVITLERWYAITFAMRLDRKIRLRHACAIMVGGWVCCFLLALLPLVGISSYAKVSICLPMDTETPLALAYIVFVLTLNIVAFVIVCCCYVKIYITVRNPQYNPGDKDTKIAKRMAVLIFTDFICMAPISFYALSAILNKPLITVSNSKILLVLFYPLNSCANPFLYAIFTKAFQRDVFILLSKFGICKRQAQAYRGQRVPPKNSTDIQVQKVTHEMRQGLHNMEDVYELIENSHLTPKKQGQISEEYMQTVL
structure (smiles),measurement,setting,value
O=[N+]([O-])c1ccc(O)c([N+](=O)[O-])c1,Potency,[1],inactive
same,Potency,[2],"inconclusive: 6.95 µM [rising, full curve]"
same,Potency,[3],"inconclusive: 113 µM [cytotoxic, partial curve] and inconclusive: 89.8 µM [cytotoxic, partial curve, poor fit]"
same,Potency,[4],"inconclusive: 17.4 µM [rising, partial curve]"
same,Potency,[5],"inconclusive: 49.2 µM [activator, partial curve, poor fit]"
same,Potency,[6],"inconclusive: 61.9 µM [activator, single point]"
same,Potency,[7],"inconclusive: 21.9 µM [rising, partial curve]"
same,Potency,[8],"inconclusive: 11 µM [rising, partial curve]"
same,max response,[8],inactive: -16%
CC(C)N(C(=O)SC/C(Cl)=C/Cl)C(C)C,Potency,[1],active: 17.3 µM
same,Potency,[3],"inconclusive: 101 µM [cytotoxic, partial curve, poor fit]"
same,Potency,[7],"inconclusive: 39.2 µM [cytotoxic, partial curve]"
same,Potency,[9],inactive
O=C1C(Cl)=C(Cl)C(=O)C(Cl)=C1Cl,Potency,[1],active: 27.2 µM and inconclusive: 34.4 µM [partial curve]
same,Potency,[10],"inconclusive: 17.9 µM [cytotoxic, partial curve] and inconclusive: 45 µM [cytotoxic]"
same,Potency,[11],"inconclusive: 27.2 µM [inhibitor, partial curve]"
same,Potency,[7],"inconclusive: 21.9 µM [cytotoxic, partial curve]"
same,Potency,[9],active: 43.5 µM and active: 21.9 µM
same,Potency,[8],active: 21.8 µM and active: 21.9 µM
Sc1ccccc1,Potency,[1],"inconclusive: 62 µM [inhibitor, partial curve, poor fit]"
same,Potency,[4],"inconclusive: 44.3 µM [cytotoxic, partial curve]"
same,Potency,[6],"inconclusive: 49.3 µM [activator, single point] and inconclusive: 21.9 µM [activator, single point]"
same,Potency,[7],"inconclusive: 44.3 µM [cytotoxic, partial curve]"
N#Cc1c[nH]cc1-c1cccc2c1OC(F)(F)O2,Potency,[1],"inconclusive: 5.45 µM [inhibitor, full curve, poor fit]"
same,Potency,[12],"inconclusive: 43.6 µM [falling, partial curve]"
same,Potency,[3],"inconclusive: 113 µM [cytotoxic, single point]"
same,Potency,[7],"inconclusive: 11 µM [cytotoxic, full curve]"
ClC1=C(Cl)[C@]2(Cl)[C@@H]3[C@@H]4C[C@@H]([C@H]5O[C@@H]45)[C@@H]3[C@@]1(Cl)C2(Cl)Cl,Potency,[1],active: 1.93 µM
same,Potency,[2],"inconclusive: 54.9 µM [cytotoxic, single point]"
same,Potency,[12],"inconclusive: 49 µM [falling, partial curve]"
same,Potency,[3],active: 50.5 µM
same,Potency,[4],active: 21.9 µM
same,Potency,[7],active: 21.9 µM
same,Potency,[8],active: 44.9 µM
Nc1ccccc1C(=O)OCCc1ccccc1,activation,[1],inconclusive: -5.33% and inconclusive: 4.91%
same,Potency,[12],"inconclusive: 30.9 µM [falling, partial curve, poor fit]"
same,"activity change, positive = activation",[13],active: 18.1% and active: 10.8%
same,Potency,[4],"inconclusive: 24.6 µM [cytotoxic, partial curve] and active: 24.5 µM"
same,Potency,[5],active: 43.6 µM
same,Potency,[6],"inconclusive: 55.2 µM [activator, single point] and active: 21.9 µM"
same,Potency,[7],"inconclusive: 39.1 µM [cytotoxic, partial curve] and active: 24.5 µM"
same,Potency,[9],"inconclusive: 34.7 µM [falling, partial curve]"
same,Potency,[8],"inconclusive: 22 µM [cytotoxic, partial curve]"
CCC(C)(C)c1ccc(O)cc1,Potency,[1],"inconclusive: 69.3 µM [activator, single point] and inconclusive: 61.1 µM [activator, single point]"
same,Potency,[3],"inconclusive: 90.7 µM [cytotoxic, partial curve] and inconclusive: 61.9 µM [cytotoxic, single point]"
same,Potency,[11],"inconclusive: 61.8 µM [inhibitor, partial curve, poor fit]"
same,Potency,[4],"inconclusive: 54.9 µM [cytotoxic, single point]"
same,Potency,[6],"inconclusive: 26.8 µM [activator, single point]"
same,Potency,[7],"inconclusive: 49 µM [cytotoxic, single point]"
same,Potency,[9],"inconclusive: 54.9 µM [falling, partial curve, poor fit]"
same,Potency,[8],"inconclusive: 49 µM [cytotoxic, single point]"
CCOC(=O)c1ccccc1C(=O)OCC,activation,[1],inconclusive: -37.7% and inconclusive: -15.4%
same,Potency,[10],inactive
same,Potency,[4],inactive
CC(C)COP(=O)(OCC(C)C)OCC(C)C,activation,[1],inconclusive: -23.9%
same,Potency,[10],"inconclusive: 56.6 µM [rising, partial curve, poor fit]"
same,Potency,[3],"inconclusive: 1.6 µM [cytotoxic, single point]"
